Measurements: PMC12040169 (PLOS Biology, 2025)
This is one part of the list.

system: T1, C. trachomatis L2/434/Bu expressing GFP (CTL2-GFP); set-up: species or system HeLa; C. trachomatis total inclusion area by high-content imaging, normalised to DMSO; settings: total inclusion area; 28.5 h, 10 µM; inhibitor
T1 construct: L2/434/Bu GFP intracellular growth in HeLa cells
How it was run: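 Post-fluorescence-read fixation, DNA staining with Hoechst and high-content imaging; GFP inclusion area and number per well, and nuclei counts, used as proxies for bacterial growth and host viability.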

Row | Compound | % of control remaining
1 | CSc1ccccc1CNC(=O)c1cc(Br)cnc1N(C)C(C)=O [CBK076478] | 85.7541
2 | CC1(C)CCCCC1CC(=O)NS(=O)(=O)c1cccc(-c2nnco2)c1 (stereo not shown) [CBK306477] | 73.3124
3 | CCOP(=O)(O)c1c([N+](=O)[O-])cc(C(F)(F)F)cc1[N+](=O)[O-] [CBK261106G] | 98.9904
4 | COc1ccc(CCNS(=O)(=O)c2cccc([N+](=O)[O-])c2)cc1OC [CBK263618] | 94.0165
5 | Cn1c(CCNC(=O)NC2CCCCC2)nc2cc([N+](=O)[O-])ccc21 [CBK268453] | 114.815
6 | Cc1nn(C)c(=O)c2c(C)noc12 [CBK001462] | 111.351
7 | Clc1ccccc1-c1nccnc1NCCc1ccncc1 [CBK038055] | 163.427
8 | CC(C)(C)C(O)CNc1ncnc2ccc(S(C)(=O)=O)cc12 (stereo not shown) [CBK306494] | 36.0297
9 | Cc1ccc(Cl)cc1N(Cc1ccc(C(=O)N2CCC(C)CC2)cc1)S(=O)(=O)c1ccccc1 [CBK033646] | 106.069
10 | Cn1c(Cc2cccc3ccccc23)nnc1SCC(=O)Nc1ccccc1F [CBK265856] | 67.0376
11 | Cc1ccc(OCC(=O)Nc2ncc(C(F)(F)F)cc2Cl)c(Br)c1 [CBK266426] | 121.609
12 | OCCN(CCO)Cc1c(Cl)cccc1Cl [CBK261887] | 95.9948
13 | COc1ccc2sc(C)[n+](CCC(=O)O)c2c1 [CBK260899B] | 90.7004
14 | CCc1cc(=O)[nH]c(-c2ccc(N3CCOCC3C)nc2)n1 (stereo not shown) [CBK305532] | 81.5408
15 | CC(C)OC(=O)COc1ccc2c(=O)c(Oc3ccccc3Br)coc2c1 [CBK264226] | 113.792
16 | Cc1ccc(-c2[nH]ncc2C(=O)c2ccccc2C)c(O)c1 [CBK287929] | 118.265
17 | COc1ccc(-c2n[nH]c(=S)n2CCC(=O)NCc2ccc(CN3CCCCC3)cc2)cc1 [CBK297918] | 91.1288
18 | CC(C)c1ccc(/C=C/C(=O)NCc2cccs2)cc1 [CBK149587] | 102.523
19 | CN(c1cccc(C#N)c1)C1CCN(c2nccn(C)c2=O)C1 (stereo not shown) [CBK304718] | 33.5345
20 | C[Si]1(C)O[Si](C)(C)O[Si](C)(CC[Si](C)(C)c2ccccc2)O[Si](C)(C)O1 [CBK260998] | 98.9461
21 | COc1ccc(Nc2nc(-c3ccc(Cl)cc3)cn3ccnc23)cn1 [CBK066254] | 94.026
22 | CCOC(=O)C1CCN(c2cccc(F)c2C#N)CC1 [CBK304558] | 45.8904
